Reference: PubChem BioAssay AID624296 (National Center for Advancing Translational Sciences (NCATS), 2012)
Among all 350,000 compounds or so, about 9,900 (2.8%) were called active. This list was built around the results that the source calls inconclusive (neither active nor inactive); the mix of calls is not that of the screen. Calls follow the shape of the dose curve; as a rule, active = well fitted activation curve with a large enough effect; inconclusive = small, poorly fitted or top-dose-only effect; inactive = no such curve, though single readings can be large or run the other way. No potency is given beside an inconclusive call; the fits are too rough.

assay: A quantitative high throughput screen for small molecules that induce DNA re-replication in MCF 10a normal breast cells.; also: nearly all actives have a fitted effect of over 50% in size; as to activity, positive = re-replication: % of control where 0% means no effect; conditions: MCF 10A DNA re-replication, Hoechst nuclear intensity, 48 h; activity, positive = re-replication: at 46.1 µM (top of the series)
Potency is read from the fitted curve at half-maximal effect; tags tell the direction and shape of the fitted curve.

| SMILES | Potency | activity, positive = re-replication |
| --- | --- | --- |
| O=c1c(-c2ccco2)[n+]([O-])c2ccccc2n1OCc1c(F)cccc1F | inconclusive [activator, partial curve, poor fit] |  |
| COc1ccc(-c2csc3ncnc(N4CCN(c5ccccc5O)CC4)c23)cc1 | inconclusive [activator, single point] |  |
| O=c1cc(-c2ccccc2Cl)oc2c([N+](=O)[O-])c(O)cc(O)c12 | active: 0.82 µM |  |
| CCOc1ccccc1NC(=O)COC(=O)CN1C(=O)NC(C)(C)C1=O |  | inactive: -2.6% |
| COc1ccc(S(=O)(=O)N2CCN(c3ccccc3)CC2)cc1 |  | inactive: 5.13% |
| Cc1nc2c(C(=O)NCCC3=CCCCC3)c[nH]n2c(=O)c1Cl | inconclusive [activator, single point] |  |
| Cc1c(NC(=O)c2cc(-c3ccccc3)nc3ccccc23)c(=O)n(-c2ccccc2)n1C | inconclusive [activator, single point] |  |
| CCOC(=O)c1c(NC(=O)C(Sc2ccccc2)c2ccccc2)sc(C(=O)N(C)C)c1C (centres undefined) | inconclusive [activator, single point] |  |
| O=c1c(-c2cc3ccccc3o2)[n+]([O-])c2ccccc2n1OCc1ccccn1 | inconclusive [activator, partial curve, poor fit] |  |
| O=S(=O)(Nc1nc2ccccc2nc1Nc1ccc2c(c1)OCCO2)c1cccs1 |  | inactive: 11.9% |
| CCC[C@@H](CNC)NC[C@H](Cc1ccccc1)NCCCCc1ccccc1 | inconclusive [activator, partial curve, poor fit] |  |
| CCOC(=O)C1=C(C)NC(C)=C(C(=O)OCCNC(=O)c2cccnc2)C1c1cccc([N+](=O)[O-])c1 (centres undefined) |  | inactive: 1.6% |
| CCc1ccc(NC(=O)C(=S)NC2CCCCC2)cc1 | inconclusive [activator, single point] |  |
| CC(C)COC(=O)N(C)c1ccc(C(O)(C(F)(F)F)C(F)(F)F)cc1 | inconclusive [activator, single point] |  |
| CC(C)CCSc1cc(NCCO)c([N+](=O)[O-])c2nonc12 | inconclusive [activator, single point] |  |
| CC(C)(CN1CCC(Cc2ccccc2)CC1)NS(=O)(=O)c1ccccc1 | inconclusive [activator, single point] |  |
| CCOc1ccccc1NC(=O)CSc1c(C)n[nH]c1C | inconclusive [activator, partial curve, poor fit] |  |
| O=C(COC(=O)/C=C/c1ccc(F)cc1)NCc1ccco1 |  | inactive: 4.79% |
| CCC(=C(c1ccc(OC)cc1)c1ccc(OC)cc1)c1cn(CC(O)CN(CCO)CCO)c2ccccc12 (centres undefined) | inconclusive [activator, single point] |  |
| Cc1ccc(S(=O)(=O)Nc2ccc(Cl)cc2C(=O)c2ccc(F)cc2)cc1 | inconclusive [activator, partial curve, poor fit] |  |
| O=C(NCCO)c1cc2c(s1)CCC2 | active: 0.251 µM |  |
| O=C1C=CC(=Nc2cccc3c2C(=O)c2ccccc2-3)O1 | inconclusive [activator, single point] |  |

| SMILES | Potency | activity, positive = re-replication |
| --- | --- | --- |
| Cc1ccc([N+](=O)[O-])c2c1C(N1CC(C)OC(C)C1)C(C)(C)O2 (centres undefined) | inconclusive [activator, single point] |  |
| CCN1CCN(c2cc(C)c3cc(NC(=S)N4CCCCC4)ccc3n2)CC1 | inconclusive [activator, partial curve, poor fit] |  |
| COc1ccc(-c2cc(C(=O)N3CCCCCC3)c3cc(C)ccc3n2)cc1 | inconclusive [activator, single point] |  |
| COc1ccccc1N1N=C(C(=O)c2ccccc2)C2C(=O)N(c3ccc(Br)cc3)C(=O)C21 (centres undefined) | inconclusive [activator, full curve, poor fit] |  |
| C=CCOc1ccc(CN(C)c2ccc(S(=O)(=O)N3CCN(C)CC3)cc2[N+](=O)[O-])cc1 | inconclusive [activator, single point] |  |
| O=C1NC(=O)/C(=C\c2ccc(OCc3cnc(Cl)s3)cc2)S1 | inconclusive [activator, single point] |  |
| Cc1cnc(NC(=O)CSc2nnc(Cc3ccccc3)o2)s1 | inconclusive [activator, partial curve, poor fit] |  |
| O=C(NNC(=O)c1ccc(Br)o1)c1ccc(NC(=O)c2ccccc2)cc1 | inconclusive [activator, single point] |  |
| CCOC(=O)[C@H]1[C@H]2COc3ccc(OC)cc3[C@@H]2N2C(=O)CN(Cc3ccc(F)cc3)C(=O)[C@@]12C |  | inactive: 23.4% |
| CCc1cccc(CC)c1NC(=O)c1cc(CN2C(=O)c3ccccc3C2=O)ccc1OC | inconclusive [activator, partial curve, poor fit] |  |
| Cc1ccc(S(=O)(=O)N2CCOCC2)cc1NC(=O)COc1ccccc1Cc1ccccc1 | inconclusive [activator, partial curve, poor fit] |  |
| Cc1cc(NC(=O)CSc2nnc(CNC(=O)c3ccc(C(C)(C)C)cc3)o2)no1 |  | inactive: 2.58% |
| COc1cc(NC(=O)C2=C(N3CCOCC3)/C(=C\c3ccc(Br)cc3)CC2)cc(OC)c1OC | inconclusive [activator, single point] |  |
| C=CCN1C(=O)/C(=C/c2ccc(OCC(=O)O)cc2)S/C1=N/c1nccs1 | inconclusive [activator, single point] |  |
| CC(C)CC1c2[nH]c3ccccc3c2CCN1CCCn1cccn1 (centres undefined) | inconclusive [activator, full curve, poor fit] |  |
| CC1CC/C(=C\c2ccc3c(c2)OCO3)C(=O)/C1=C/c1ccc2c(c1)OCO2 (centres undefined) | active: 7.31 µM |  |
| Cc1cc(C)n2nc(CCCO)nc2n1 | inconclusive [activator, full curve, poor fit] |  |
| O=C(Nc1ccc(-c2cn3ccccc3n2)cc1)c1cccs1 | inconclusive [activator, single point] |  |
| Cc1ccc(CSc2nnc(-c3ccc(NS(=O)(=O)c4ccccc4)cc3)o2)cc1 | inconclusive [activator, single point] |  |
| COc1ccc(N2CCN(c3ccc(NC(=O)NN)cc3)CC2)cc1 | inconclusive [activator, partial curve, poor fit] |  |
| Cc1ccc(C)c(OCC(=O)N/N=C/c2ccsc2)c1 | inconclusive [activator, single point] |  |
| C[C@@H]1CC=C[C@H]2[C@H]1C(=O)N(Cc1ccccc1)[C@H]2c1ccc(-c2cc3ccccc3s2)cc1F | inconclusive [activator, single point] |  |

| SMILES | Potency | activity, positive = re-replication |
| --- | --- | --- |
| NS(=O)(=O)c1ccc(Cl)c(C(=O)Nc2ccccc2[N+](=O)[O-])c1 | inconclusive [activator, partial curve, poor fit] |  |
| CCOC(=O)C1Oc2ccccc2C(c2ccc(F)cc2)=C1C(=O)OC (centres undefined) |  | inactive: -3.6% |
| O=C1CCCN1CCC1CCN(C2CC(=O)N(Cc3ccc(N4CCCC4=O)cc3)C2=O)CC1 (centres undefined) |  | inactive: 29.6% |
| CCCCNC(=S)N(C)/N=C/c1ccc(OCC(=O)Nc2c(C)cc(C)cc2C)c(OC)c1 | active: 18.4 µM |  |
| CN(CC(=O)Nc1ccc(F)c(F)c1F)C(=O)C1CCCO1 (centres undefined) |  | inactive: -0.411% |
| S=C1NC(c2ccccc2)=CC(c2ccccc2)N1 (centres undefined) | inconclusive [activator, single point] |  |
| CC(=O)c1cccc(-n2nnnc2SCC(=O)Nc2cccc(NC(=O)c3ccco3)c2)c1 | inconclusive [activator, partial curve, poor fit] |  |
| Cc1ccc(CNC(=O)Cn2ccc3cc(S(=O)(=O)N4CCCCCC4)ccc32)cc1 | inconclusive [activator, partial curve, poor fit] |  |
| Cc1cc(NC(=O)CN2CCOCC2)n(-c2nc3ccccc3s2)n1 | active: 14.6 µM |  |
| CCOC(=O)c1c(C)nc2sc3c(=O)n(-c4ccc(C(C)=O)cc4)cnc3c2c1-c1ccc(Cl)cc1 |  | inactive: -13.5% |
| O=C(CSc1nc2ccccc2c(=O)n1Cc1ccco1)c1ccccc1 | inconclusive [activator, partial curve, poor fit] |  |
| O=C1CSC(c2ccc(Cl)c(Cl)c2)N1c1nccs1 (centres undefined) | inconclusive [activator, single point] |  |
| Cc1ccc2nc(N3C(=O)C(O)=C(C(=O)c4ccco4)C3c3cccs3)sc2c1 (centres undefined) | active: 20.6 µM |  |
| CC(=O)c1cccc(NC(=O)NNC(=O)c2ccc(-c3ccccc3)cc2)c1 |  | inactive: 0.776% |
| O=C(NCCc1ccccc1)c1cc(S(=O)(=O)N2CCOCC2)ccc1F |  | inactive: 16.2% |
| COCC(=O)N1CCC(Oc2ccc(C(=O)NCc3cc(C)n(C)n3)cc2)CC1 |  | inactive: -0.136% |
| Cc1cc(C(=O)Nc2ccc3ccccc3c2)oc1C | inconclusive [activator, single point] |  |
| Cc1ccc(C)c(-n2c(Cc3cccs3)n[nH]c2=S)c1 | inconclusive [activator, full curve] |  |
| O=C(Nc1ccc([N+](=O)[O-])cc1)c1ccc(Cn2cc([N+](=O)[O-])cn2)cc1 | inconclusive [activator, full curve, poor fit] |  |
| Cc1cccnc1NCc1ccc(O)c2ncccc12 | inconclusive [activator, partial curve, poor fit] |  |
